Whole data set: some 110,000 compounds, median “z-score” near -0.1, cut for the highest 2% near 2. The list shows a part of the results. Calls of active or inactive are those of the source.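 How the source made its calls: active means z-score in the third read window above 3 or below -3; inactive means the rest.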
Target: Metabotropic glutamate receptor 8 (Rattus norvegicus) (UniProt P70579)
Test: mGluR8 Gi/Go-coupled signaling modulation – cell-based, rat, thallium flux, HTS, primary screen (AID 488969)
Conditions: HEK293 rat mGluR8, GIRK (G protein-gated inwardly rectifying potassium channel) thallium flux, FluoZin2; at 10 µM; stronger effect = higher value; submaximal glutamate (EC20) added with thallium

Sequence of UniProt P70579 (P70579 whole entry, looked up): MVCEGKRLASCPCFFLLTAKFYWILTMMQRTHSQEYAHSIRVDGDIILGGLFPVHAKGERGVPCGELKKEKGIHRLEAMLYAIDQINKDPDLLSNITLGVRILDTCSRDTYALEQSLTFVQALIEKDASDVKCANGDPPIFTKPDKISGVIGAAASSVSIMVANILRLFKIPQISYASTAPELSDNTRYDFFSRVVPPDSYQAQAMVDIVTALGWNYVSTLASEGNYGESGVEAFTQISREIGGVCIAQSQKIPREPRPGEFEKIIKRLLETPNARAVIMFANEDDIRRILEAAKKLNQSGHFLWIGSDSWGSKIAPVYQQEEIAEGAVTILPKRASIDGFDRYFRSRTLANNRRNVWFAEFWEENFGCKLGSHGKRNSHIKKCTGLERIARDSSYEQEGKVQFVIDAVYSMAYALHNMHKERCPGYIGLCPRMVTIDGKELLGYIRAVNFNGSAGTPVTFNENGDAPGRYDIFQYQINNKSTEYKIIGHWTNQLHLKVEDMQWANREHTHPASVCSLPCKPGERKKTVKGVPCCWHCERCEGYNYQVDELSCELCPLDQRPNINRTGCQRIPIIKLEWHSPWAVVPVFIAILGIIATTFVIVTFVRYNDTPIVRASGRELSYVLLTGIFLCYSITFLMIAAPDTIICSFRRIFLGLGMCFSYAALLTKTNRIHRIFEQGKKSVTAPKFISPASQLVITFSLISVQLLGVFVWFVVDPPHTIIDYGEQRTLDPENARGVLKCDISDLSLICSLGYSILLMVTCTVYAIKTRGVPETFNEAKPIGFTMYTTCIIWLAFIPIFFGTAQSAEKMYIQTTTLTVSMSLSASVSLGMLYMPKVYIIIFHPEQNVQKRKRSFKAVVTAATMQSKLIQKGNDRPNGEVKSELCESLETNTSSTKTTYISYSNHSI

Structure (SMILES)	z-score
CC(C)CC(=O)Nc1ncnc2c1C(=O)CC(C)(C)C2	0.108
O=c1c2ccccc2n2cnnc2n1-c1ccccc1	0.114
COc1cccc(CNn2cnnc2)c1OCc1ccc(F)cc1	-0.661
Cc1ccc(CNC(=O)C(=O)NCC2CCCO2)cc1 (stereo not drawn)	0.351
COc1ccc(C(Nc2ccccn2)c2c(NC(=O)c3ccco3)sc(C)c2C)cc1 (stereo not drawn)	0.249
Cn1c(-c2ccc3nc(N)sc3c2)nc2cc(N)ccc21	0.495
NC1=NC(=O)C(CC(=O)c2ccc(Cl)cc2)S1 (stereo not drawn)	0.0574
Cc1ccc2nc(SCC(=O)NC3CCCc4ccccc43)[nH]c2c1 (stereo not drawn)	0.164
N#C/C(=C/c1ccc(N2CCCCCC2)o1)c1ccc(F)cc1	0.567
CCN(CC)C(=O)CSc1ncnc2c1nnn2-c1ccc(OC)cc1	-0.262
O=C1CC(c2ccc(F)cc2)Cc2nc(N3CCOCC3)ncc21 (stereo not drawn)	-0.0725
C=CCNC(=S)NNC(=O)c1ccc2c(c1)OCO2	-0.78
O=C(NCCc1ccccn1)c1ccc(S(=O)(=O)N2CCCCCC2)cc1	-0.0566
Cc1ccc(N2C(N)=NC(N)=NC23CCCC3)c(C)c1	0.0847
COc1ccc(OC)c(C(=O)C2COC(=O)C2)c1 (stereo not drawn)	0.255
Cc1cc(C(F)F)n2nc(C(=O)Nc3sc4c(c3C(N)=O)CCC4)nc2n1	-0.336
COc1cccc2cc(/C(C)=N/Nc3nc(-c4cc(C)ccc4C)cs3)c(=O)oc12	-0.291
COC(=O)c1cc(C(C)=O)n2ccccc12	-0.393
Cc1cccc(C)c1NC(=O)N1C(C(=O)O)CSC1C(=O)O (stereo not drawn)	0.243
CCOc1cc(C2C(C#N)=C(N)Oc3n[nH]c(CC)c32)ccc1OCCN1CCOCC1 (stereo not drawn)	0.000546
CCC(CC)C(=O)Nc1cc(C(=O)OC)ccc1C(=O)OC	0.417
Cc1ccc2nc(-c3ccc(NC(=O)C4CCCO4)cc3)[nH]c2c1 (stereo not drawn)	-0.257
Fc1cnc(N2CCOCC2)nc1NCc1ccccc1	0.0946

Structure (SMILES)	z-score
COc1ccc(Oc2cc(C(F)(F)F)cnc2C(N)=O)cc1	-0.0956
COc1cccc(-n2c(SCC(=O)NCCC3=CCCCC3)nc3n[nH]c(C)c3c2=N)c1	active: 8.62
CCOC(=O)c1c(C)c(C(=O)NCCc2ccc(S(N)(=O)=O)cc2)c(C)n1CC	-0.0818
O=C(O)c1ccc(N=NN2CCOCC2)cc1	0.0304
Cc1nc2ccccc2n1S(=O)(=O)c1ccc(Br)cc1	0.00472
Cc1cccc(OCC(O)Cn2c(-n3nc(C)cc3C)nc3c2c(=O)[nH]c(=O)n3C)c1 (stereo not drawn)	-0.0623
COCCNCCOCCOc1cccc(OC)c1	-0.936
COC(=O)c1c(C(=O)OC)c2cc(C(=O)c3ccccc3)ccn2c1Cl	-1.08
O=S(=O)(c1ccc(Cl)cc1)N1CCSC1c1ccco1 (stereo not drawn)	-1.54
CC(C)(C)c1ccc(C(=O)N/C(=C/c2cccs2)C(=O)NCc2ccco2)cc1	0.217
N#C/C(=N\Nc1ccc(Cl)cc1)C(=O)c1ccccc1	active: -3.03
CCc1cc2cc(C(=O)N3CCN(Cc4ccccc4)CC3)sc2s1	1.1
COCC(=O)N(CCc1ccc(OC)cc1)Cc1nc2ccccc2c(=O)[nH]1	-0.025
Cc1cc(NC(=O)CCC(=O)N(CC(=O)NC2CCCC2)c2cccc(C)c2C)no1	-0.25
c1ccc(OCCCCn2cnc3ccccc32)cc1	-0.677
COc1ccc(C(=O)NC(Nc2ccc(C)cc2)C(Cl)(Cl)Cl)cc1 (stereo not drawn)	-0.529
O=C(CSc1nc(-c2ccc(F)cc2)cs1)N1CCc2ccccc21	-0.119
C=CCn1c(=O)[nH]c2cc(C(=O)N3CCN(c4cc(C)ccc4C)CC3)ccc2c1=O	-0.0336
COc1ccc(CCN2C(=O)C3C4CC(C5C(C(=O)O)=NOC45)C3C2=O)cc1OC (stereo not drawn)	1.24
CCN1CCN(c2nc(Nc3ccccc3)nc(N)c2[N+](=O)[O-])CC1	-0.154
CCCCC(=Nc1ccccc1OC)C1=C(O)CC(c2ccccc2)CC1=O (stereo not drawn)	0.397
CCC1C(C#N)=C(N)OC2=C1C(=O)CC(C)(C)C2 (stereo not drawn)	-0.381
Cc1ccc(SCC2CNc3nc4ccccc4c(=O)n32)c(C)c1 (stereo not drawn)	-0.163

Structure (SMILES)	z-score
O=C(COc1ccccc1)NC(NC(=S)Nc1ccccc1O)C(Cl)(Cl)Cl (stereo not drawn)	0.583
COc1ccc(N2C(=NC(C)=O)SC3CS(=O)(=O)CC32)cc1OC (stereo not drawn)	0.218
Cc1cc(C)c2c(CC(=O)NCc3ccco3)coc2c1	-0.311
Cc1cc(C)n(-c2nnc(C)n2/N=C/c2ccccc2OCc2ccccc2Cl)n1	active: -3.41
COc1ccc(NC(=O)c2cc3n(n2)C(C(F)(F)F)CC(c2ccc(OC)cc2)N3)cc1 (stereo not drawn)	-0.143
COc1ccc(NC(=O)CC2Sc3ncnn3C2=O)cc1 (stereo not drawn)	0.561
CCS(=O)(=O)N1CCCC(C(=O)NCCCN(C)Cc2ccccc2)C1 (stereo not drawn)	0.505
Cc1cc(OCC(=O)NCCCN2CCOCC2)cc(C)c1Cl	0.729
CC1CN(C(=S)SCCN2Cc3ccccc3C2=O)CC(C)O1 (stereo not drawn)	-0.252
COc1ccc(NCC(=O)Nc2ccc(C#N)cc2)cc1Cl	-0.325
O=C1C2CCCN2C(c2ccc(F)c(F)c2)N1c1cccc(Cl)c1 (stereo not drawn)	-0.234
Cc1ccc(S(=O)(=O)NCc2nc3ccccc3[nH]2)cc1	-0.359
CC(C)(C)Nc1nc(Cl)nc(NC(C)(C)C)n1	-0.0263
Cc1c(NC(=O)c2ccccc2NS(=O)(=O)c2ccc(F)cc2)c(=O)n(-c2ccccc2)n1C	-0.385
COc1ccc(C(=O)NCc2ccccc2)cc1S(=O)(=O)N1CCCc2ccccc21	-0.572
CCCCc1nc(NCCN2CCOCC2)c(C#N)c2c1COC(C)(C)C2	-0.414
O=C(Cn1nnc(-c2ccccc2Cl)n1)NCc1ccc2c(c1)OCO2	-0.0315
C=CCOc1ccc(/C(CC)=N/O)c(OC)c1	0.337
O=C(Cn1c(=O)sc2ccccc21)Nc1ccccc1C(=O)O	-0.0627
Oc1ccccc1/C=N/n1cnnc1	0.0162
COc1ccc(S(=O)(=O)N(C)CC(=O)NCc2ccco2)cc1	-0.29
Cc1cccc(CCNC(=O)C2CCCN(S(=O)(=O)c3cnc[nH]3)C2)c1 (stereo not drawn)	0.438
Cc1cccc(NC(=O)NCc2ccccn2)c1	-0.194

Structure (SMILES)	z-score
Cc1cc2cc(CN(CC3CCCO3)C(=O)c3cnccn3)c(=O)[nH]c2cc1C (stereo not drawn)	-0.113
COc1ccc(N2Cc3cccc(C(=O)N4CCN(C(=O)c5ccco5)CC4)c3C2=O)cc1	-0.0557
CCN(CC)CCn1c(=S)[nH]c2ccccc2c1=O	-2.46
CC(C)Cn1nc(NC(=O)C(C)(C)C)c2cc3ccccc3nc21	-0.625
CCOc1c(Cl)cc(C(=O)NCCN2CCCCC2)cc1Cl	1.48
COc1ccc(C(=O)NC(=O)COC(=O)C2COc3ccccc3O2)cc1 (stereo not drawn)	-0.358
COCCNC(=O)C(c1cccs1)N(C(=O)Cn1nnc2ccccc21)c1ccc(OC)cc1 (stereo not drawn)	0.0248
CC(=O)c1ccc2c3c(cccc13)C(=O)N(c1c(C)nn(C)c1C)C2=O	0.156
COc1ccc(-c2cnn3c4c(c(C)nc23)CCN4C2CCCC2)cc1OC	-0.282
CC(C)N1C(=S)SC(C)(C)C1NO (stereo not drawn)	-0.154
Cc1c(NC(=O)CCC2CCCCC2)c(=O)n(-c2ccccc2)n1C	2.9
C1CCc2c(nnc3c2-c2nonc2CC3)C1	1.08
O=C(CC(c1ccccc1)c1ccco1)N1CCOCC1 (stereo not drawn)	-0.942
O=C(CSc1nc2ccccc2n1S(=O)(=O)c1ccccc1)N1CCCC1	1.76
COc1ccc(NC(=O)CN2CCN(Cc3ccc4c(c3)OCO4)CC2)cc1OC	0.0642
COc1ccccc1C(=O)Nc1ccc(N2CCN(Cc3ccccc3)CC2)cc1	-0.143
COc1ccc(NC(=O)Nc2nnc(C(C)C)s2)cc1	-1.86
C=CCNC(=S)Nc1sc2c(c1C(=O)OCC)CCN(C(=O)OCC)C2	0.145
O=C(CCSc1ccc(Cl)cc1)N1CCCCCC1	-0.316
COC(=O)c1sc(NC(=O)Cc2cccs2)nc1C	0.604
COc1ccc(C(=O)OCCN2CCOCC2)cc1	0.338
Cc1cccc2cc(COC(=O)C(C)C)c(=O)[nH]c12	-0.479
CC1(C)CC(=O)C2=C(C1)Oc1ncn(CCCn3ccnc3)c(=N)c1C2c1ccccc1 (stereo not drawn)	-1.99

Structure (SMILES)	z-score
COc1ccc(OC)c(C2CC(=O)N3CN(c4ccccc4)CSC3=C2C#N)c1 (stereo not drawn)	-0.44
CCCc1nc2sc3c(=O)n(N)cnc3c2c2c1CCCC2	-0.191
CSc1nc(N)nc(SCC(=O)CC(=O)OC(C)C)c1C#N	-0.324
CN(C1CCS(=O)(=O)C1)S(=O)(=O)c1ccccc1[N+](=O)[O-] (stereo not drawn)	-0.161
COc1ccc(C(=O)c2ccc(OC)c(OC)c2)cc1	-0.149
Cc1ccc(NC(=O)CN(C)C(=O)c2ccc(Cl)c([N+](=O)[O-])c2)cc1	-0.273
CCOC(=O)CNc1nc(OCC#N)nc(N2CCOCC2)n1	-1.26
CC(=O)Nn1c(COc2ccccc2C)nc2ccccc2c1=O	0.505
CCCCCc1nc2ccccc2c(=O)n1N	0.685
N#Cc1ccccc1NC(=O)Nc1ccc(Cl)cc1	0.331
CC1CCC(=NNc2ccc(C(F)(F)F)cc2[N+](=O)[O-])CC1 (stereo not drawn)	0.219
CC(C)CSc1nc(N2CCOCC2)c2c(c1C#N)CC(C)(C)SC2	-0.0517
CC(=O)Nc1c(O)nc(SCC(=O)N2CCN(c3ccc(F)cc3)CC2)[nH]c1=O	-0.563
Cc1ccc(CNC(=O)C2CC(c3ccccc3[N+](=O)[O-])=NO2)o1 (stereo not drawn)	-0.211
Cc1ccnc(NS(=O)(=O)c2ccc(NC(=O)C34CC5CC(CC(C5)C3)C4)cc2)n1	-0.303
CC(C)(C)NC(=S)Nc1ccc(Nc2ccccc2)cc1	-0.0456
Cc1ccccc1-n1c(=O)c2ccccc2n2cnnc12	-0.293
CC(=O)c1cccc(N(CC(=O)N2CCCC2)S(C)(=O)=O)c1	-0.101
O=C1c2ccccc2C(Nc2ccccc2F)N1c1cccnc1 (stereo not drawn)	-0.13
COc1cc(NC(=O)CN(C)S(=O)(=O)c2ccc3c(c2)CCC(=O)N3)cc(OC)c1	-0.176
Cc1ccc(C)c(N(CC(=O)Nc2ccccc2C(=O)NCc2ccco2)S(=O)(=O)c2ccccc2)c1	-1.56

Source: PubChem BioAssay AID488969 (Vanderbilt High Throughput Screening Facility, 2010)
